Measured values: the supplement of paper PMC3334620
Whole data set: some 33,000 sequences, median “E-score (-0.5 to 0.5)” near -0.017, cut for the highest 2% near 0.3. The list shows a part of the results.

The sequences below were run against T1, Sut1 (UniProt P53032) (assay: PBM E-score (8-mer binding enrichment) (E-score (-0.5 to 0.5)); higher = stronger / more preferred TF binding; most listed sequences are background and not binding sites). Details: protein concentration: 200 nM; construct: GST-full length.
T1 sequence: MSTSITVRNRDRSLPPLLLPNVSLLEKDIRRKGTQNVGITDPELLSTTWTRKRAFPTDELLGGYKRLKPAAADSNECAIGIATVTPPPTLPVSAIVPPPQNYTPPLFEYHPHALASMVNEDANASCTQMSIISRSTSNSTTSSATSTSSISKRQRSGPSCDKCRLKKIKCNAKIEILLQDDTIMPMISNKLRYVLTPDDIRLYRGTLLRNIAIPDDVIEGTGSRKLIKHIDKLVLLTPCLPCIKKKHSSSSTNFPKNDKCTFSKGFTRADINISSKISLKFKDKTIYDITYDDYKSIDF
Summary of the method: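 Each ungapped eight-base word and its reverse complement, pooled, received an E-score from the Universal PBM Analysis Suite. Underlying scans, normalised with masliner, recorded fluorescent anti-GST bound to GST-tagged yeast transcription factors. These were applied at about 100-200 nM to universal all-10-mer Agilent arrays double-stranded by primer extension.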

Sequence	PBM E-score
CGAACGGC	0.0885
ATTGAATA	0.315
ATTAGACG	0.0981
ATCCACAG	-0.0799
ATTATGAG	0.0109
AACGAGGC	-0.11
AAAGTTGT	0.201
AGTAGGGG	-0.0998
AGTCTTCA	0.0813
GATTGCCA	-0.138
CTGCGTTA	-0.0718
AACCAAAT	0.165
ATAGACAT	-0.0466
CTTCGGCC	-0.00176
GCATGACA	-0.0823
GGAGACCC	0.0368
CGGCTGCC	0.0258
GATTTAGC	0.0679
TCCAGTCA	-0.0307
ACGGGCCG	-0.158
AGGATGTG	-0.0478
ATTTACTC	0.222

Sequence	PBM E-score
TAAACCAA	0.219
AGCGTAAT	0.0798
AGGTCGGA	0.316
CATGTATC	0.195
TGCTTAAA	0.225
GCCCTTCA	-0.0436
CGGTATCA	0.0143
CCAACGGG	-0.0283
AGAACATG	0.0018
GACGTCCC	-0.122
CTTATCTA	0.183
ATGCGAAA	0.107
ATAAGTAG	0.0173
AGTGGGAC	-0.122
ACACAGGT	-0.184
CACAAGGG	-0.179
AGGTGGCC	-0.208
AATGAAGA	0.0727
AGATGCCA	-0.102
GGCCCGCA	-0.113
CCTTCCAG	-0.179
AGCCGCGC	-0.0974

Sequence	PBM E-score
CCATGACC	-0.322
AGAGCGTG	-0.133
AATTACGA	0.19
CCTTGACG	-0.177
GAGTCTTA	-0.129
GGTCTCCA	-0.16
ATGTCATA	0.0566
CACACCAA	0.0492
GCCACCAA	-0.0938
TCGTCGAA	-0.215
AGCTTTTG	0.068
CTGCTCCA	-0.154
GTTCTAGA	0.0772
AGCTACCT	-0.164
TCTGGGAA	-0.153
ACTCGTCG	-0.174
TATTTTCA	0.146
ATTGCGAG	-0.119
AATCGACA	0.187
CCTAGTTC	-0.0873
AAGTATAG	0.0511
CAATGCGG	0.0624

Sequence	PBM E-score
AGTACAAC	0.0862
CACTAGGG	-0.368
GGACACAC	-0.102
CGAGCGCG	-0.00328
ACTCAGGG	-0.227
AAACGGTC	-0.0718
CCTATGGC	-0.194
AGAATGGG	-0.00215
CTCCTTGC	-0.144
GGCCGAAA	0.195
AACGAAGA	0.102
AAAACGTG	0.0522
GCGGTAAC	0.113
AAGATCGG	0.111
GCCGCGCA	-0.114
ACTCAGGA	-0.0118
GGCCGCAC	-0.141
AATCCCGT	0.149
TCGTAACA	0.103
GATGTAAA	0.115
